# In PubChem BioAssay AID662 (National Center for Advancing Translational Sciences (NCATS), 2007):
# Screen size: about 71,000 compounds; about 1,800 (2.5%) were called active. The inconclusive results got no clear call from the source; some entries with a clear call stand among them for comparison. The call rests on the fitted dose curve; in most records, active means well fitted activation curve with a large enough effect in the signal ratio, with a control signal flat (not every such curve was filed as active); inconclusive means small, poorly fitted or top-dose-only effect, or effect the other way, or a change in a side signal; inactive means flat fitted curve, though single readings scatter; the % refers to the signal ratio. Potencies of inconclusive entries are doubtful fits and often do not repeat.
# Assay: Cell signaling CRE-BLA (Fsk stim); on activity change, negative = inhibition: % of control where 0% means no effect
# Settings: CHO CRE-bla reporter (cAMP response element driving beta-lactamase), forskolin EC10, beta-lactamase ratio
# Summary of the method: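 Forskolin analogue NKH 477 at EC10 stimulated CRE-driven beta-lactamase in CHO cells alongside compound dilution series. Beta-lactamase was measured with CCF4, excitation 405 nm, emission ratio 460/530 nm.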
# [1] = activity change, negative = inhibition: at 38.2 µM (top of the series) unless noted
# Potency means the concentration at half of the fitted maximal effect; tags describe the fitted curve by direction and shape.
smiles,measurement,setting,value
CN(C)CCn1c(CO)nc2c1c(=O)n(C)c(=O)n2C,"activity change, negative = inhibition",[1],inactive: 3.73% [at 7.6 µM]
Cc1cc(C)c2c(c1)-c1c(ssc1=S)C(C)(C)N2C(=O)CSc1nncn1C,"activity change, negative = inhibition",[1],inconclusive: 8.91% [at 7.6 µM]
CCOC(=O)c1cnc2c(C)c(Cl)ccc2c1N1CCOCC1,Potency,[1],"inconclusive: 3.16 µM [rising, single point]"
CCCCNC(=O)c1ccc(NS(=O)(=O)c2ccccc2)cc1,"activity change, negative = inhibition",[1],inactive
O=C(Nc1ccc2c(c1)OCO2)C1CCN(S(=O)(=O)c2cccs2)CC1,Potency,[1],active: 3.16 µM
COc1ccccc1NC(=O)c1nnn(CC(=O)Nc2cccc(SC)c2)c1N,"activity change, negative = inhibition",[1],inconclusive: -1.54%
COc1cc(NC(=O)CN2c3cccc4cccc(c34)S2(=O)=O)cc(OC)c1OC,Potency,[1],"inconclusive: 10 µM [rising, partial curve]"
CC(CC1C(C#N)=C(N)SC(N)=C1C#N)c1ccccc1 (configuration not stated),"activity change, negative = inhibition",[1],inactive
Cn1c(/N=C/c2c(O)ccc3ccccc23)nc2ccccc21,"activity change, negative = inhibition",[1],inconclusive: 16.2% [at 7.6 µM]
Nc1nc(-c2ccccc2)nc(-c2ccccc2O)n1,"activity change, negative = inhibition",[1],inconclusive: -28.2%
COc1ccccc1-c1ccc2ncnc(NC3CCNCC3)c2c1,"activity change, negative = inhibition",[1],inactive
O=c1c(-c2ccccc2)nc2cnc(Oc3ccccc3)nc2n1C[C@H]1CCCO1,"activity change, negative = inhibition",[1],inconclusive: 15%
Cc1ccc2nsnc2c1NS(=O)(=O)c1c(C)ccc2nsnc12,"activity change, negative = inhibition",[1],inconclusive: -8.04%
COc1ccc(CCNC(=O)C2CCN(c3nn4c(=O)cc(C)nc4s3)CC2)cc1OC,"activity change, negative = inhibition",[1],inconclusive: 26.8%
CC[C@H]1CN(C)[C@H]2Cc3c([nH]c4ccccc34)C(=O)C[C@H]1[C@H]2C(=O)OC,"activity change, negative = inhibition",[1],inactive: -0.792% [at 7.6 µM]
Cc1ccc(-c2nnc(SCC(=O)O)n2N)cc1,"activity change, negative = inhibition",[1],inconclusive: 25.2%
COc1ccc(C(=O)N2CCC3(CC2)CCN(c2ccccc2)CC3)cc1,"activity change, negative = inhibition",[1],inactive
Cc1[nH]c2ccccc2c1-c1nc2ccccc2[nH]1,"activity change, negative = inhibition",[1],inconclusive: -11.3%
O=C(Nc1c(F)cc(F)cc1Br)c1cc(-c2ccc(O)cc2)on1,"activity change, negative = inhibition",[1],inconclusive: -16.4%
COc1ccc(-c2nc3nc(C)cc(C)n3n2)cc1,"activity change, negative = inhibition",[1],inactive
CN(Cc1cnn(C)c1)C(=O)c1cc2ccccc2oc1=O,"activity change, negative = inhibition",[1],inconclusive: -5.48%
COc1ccccc1NC(=O)c1oc2ccc(C)cc2c1C,"activity change, negative = inhibition",[1],inactive
O=C1CCC(=O)N1CN(C(=O)c1ccco1)c1ccccc1,"activity change, negative = inhibition",[1],inactive
N#CC1=C(N)OC2=C(C(=O)CCC2)C12CCC1(CC2)OCCO1,"activity change, negative = inhibition",[1],inactive
COc1ncnc2c1NC(=O)CS2,"activity change, negative = inhibition",[1],inconclusive: 25.3%
O=S(=O)(NCCSc1ccccc1)c1cccs1,"activity change, negative = inhibition",[1],inconclusive: 9.37% [at 7.6 µM]
CCOc1ccccc1NC(=O)Cc1ccccc1OC,Potency,[1],"inconclusive: 2.51 µM [falling, full curve, poor fit]"
N#CC1=C(N)N(c2ccccc2)C(c2ccco2)C1(C#N)C#N (configuration not stated),Potency,[1],"inconclusive: 5.01 µM [rising, partial curve]"
COc1ccc(C(=O)N2CCC3(CCCN(Cc4ccc(C#N)cc4)C3)CC2)cc1,"activity change, negative = inhibition",[1],inactive
Cc1ccc2oc(-c3ccco3)nc2c1,Potency,[1],"inconclusive: 25.1 µM [rising, single point]"
Cc1cccc(S(=O)(=O)Nc2cccc(-c3cn4ccsc4n3)c2)c1,Potency,[1],active: 2 µM
CCCc1cc(N2CCN(c3ccccn3)CC2)n2nc(C)c(-c3ccccc3)c2n1,"activity change, negative = inhibition",[1],inactive
Nc1nc(SCC(=O)c2ccc(Oc3ccccc3)cc2)n[nH]1,Potency,[1],"inconclusive: 1.58 µM [rising, full curve]"
c1cncc(-c2nc(N3CCNCC3)c3ccccc3n2)c1,Potency,[1],"inconclusive: 20 µM [rising, single point]"
COCCn1c(=O)cnc2cnc(Oc3ccccc3)nc21,"activity change, negative = inhibition",[1],inactive
CCN(CC)c1ccc(-c2nn3c(-c4n[nH]c5c4CCC5)nnc3s2)cc1,Potency,[1],"inconclusive: 0.316 µM [rising, full curve, poor fit]"
OCCN1CCN(c2nc(-c3ccccc3)c3cc(Cl)ccc3n2)CC1,Potency,[1],"inconclusive: 15.8 µM [rising, partial curve]"
C[C@@]12CCC(=O)C=C1CC[C@H]1[C@H]3CC[C@](O)(C(=O)CO)[C@]3(C)CC[C@@H]12,"activity change, negative = inhibition",[1],inconclusive: -22.9%
CS(=O)(=O)Nc1ccc(C(=O)Nc2ccccc2C(=O)N2CCCC2)cc1,"activity change, negative = inhibition",[1],inconclusive: -0.15%
O=C1c2ccccc2CC[C@H]1CNCCc1ccc(O)cc1,Potency,[1],"inconclusive: 15.8 µM [falling, partial curve, poor fit]"
COc1ccc(C(=O)COC(=O)CCN=C2NS(=O)(=O)c3ccccc32)cc1OC,Potency,[1],active: 10 µM
Cn1c(=O)c2cc(S(=O)(=O)NCCC(=O)NCc3ccccc3Cl)ccc2n(C)c1=O,"activity change, negative = inhibition",[1],inactive
Cc1cc(C)n(-c2nc3c(c(=O)n(C)c(=O)n3C)n2Cc2cccc(Br)c2)n1,"activity change, negative = inhibition",[1],inconclusive: 29.6%
COCCNC(=O)CSc1nc2ccccc2c(=O)n1CC1CCCO1 (configuration not stated),"activity change, negative = inhibition",[1],inactive
O=C(Nc1c(C(=O)N2CCOCC2)cnn1-c1ccccc1Cl)c1ccco1,"activity change, negative = inhibition",[1],inconclusive: -7.58% [fluorescent]
C[C@H]1[C@H](C)CC[C@@]2(C(=O)O)CC[C@]3(C)C(=CC[C@H]4[C@@]5(C)C[C@@H](O)[C@H](O)[C@@](C)(CO)[C@@H]5CC[C@@]43C)[C@@H]12,"activity change, negative = inhibition",[1],inactive
COc1ccc(CNC(=O)c2cccc(N3CCCC3=O)c2)cc1,Potency,[1],"inconclusive: 0.1 µM [falling, full curve, poor fit]"
FC(F)(F)c1cc(-c2cccs2)nc(N2CCOCC2)n1,"activity change, negative = inhibition",[1],inconclusive: 13.5%
CCOc1ccccc1NC(=O)CSc1ncnc2c1oc1ccccc12,Potency,[1],active: 0.631 µM
CCOC(=O)C1CCN(C(=O)Nc2ccc3nc(-c4ccco4)c(-c4ccco4)nc3c2)CC1,"activity change, negative = inhibition",[1],inactive
Cc1cc(C(=O)CSc2nnc(-c3ccco3)o2)c(C)n1-c1ccc2c(c1)OCCO2,"activity change, negative = inhibition",[1],inconclusive: -6.72%
CN(C(=O)COC(=O)C1c2ccccc2Oc2ccccc21)C1CCS(=O)(=O)C1 (configuration not stated),"activity change, negative = inhibition",[1],inactive
Cc1ccccc1OCCn1c(=O)oc2ccccc21,"activity change, negative = inhibition",[1],inconclusive: 13.6%
COc1ccccc1NC(=O)c1ccc(Cl)c(S(=O)(=O)N2CCOCC2)c1,Potency,[1],"inconclusive: 5.01 µM [rising, single point]"
CCOC(=O)N1CCN(C(=O)CCc2c(C)nc3nc(C)nn3c2C)CC1,"activity change, negative = inhibition",[1],inconclusive: 19.8%
COc1cccc(C2/C(=C(\O)c3c(C)nc4c(C)cccn34)C(=O)C(=O)N2CCCN(C)C)c1 (configuration not stated),"activity change, negative = inhibition",[1],inactive
CCOc1ccccc1Nc1nc2ccccc2n2cnnc12,Potency,[1],"inconclusive: 0.398 µM [rising, full curve]"
COc1ccccc1Oc1ccc(S(=O)(=O)NCc2ccccn2)cc1,Potency,[1],"inconclusive: 25.1 µM [rising, single point]"
CS(=O)(=O)N(CC(=O)Nc1ccc2c(c1)OCCO2)Cc1ccc(Cl)cc1,"activity change, negative = inhibition",[1],inconclusive: 2.17%
CCNc1ncc2nc(-c3cccs3)c(=O)n(C)c2n1,Potency,[1],"inconclusive: 2 µM [rising, full curve]"
CN(C)c1ncc2ncc(=O)n(C3CC3)c2n1,Potency,[1],"inconclusive: 12.6 µM [rising, partial curve]"
COc1cc(NC(=O)c2cc(C(C)C)on2)cc(OC)c1OC,Potency,[1],"inconclusive: 12.6 µM [rising, partial curve]"
O=C1CCCC(O)=C1C1C2=C(CCCC2=O)Oc2ccccc21 (configuration not stated),"activity change, negative = inhibition",[1],inconclusive: -20%
CN(C)c1ncc2nc(CCc3ccccc3)c(=O)n(C[C@H]3CCCO3)c2n1,Potency,[1],active: 12.6 µM
COC(=O)c1ccccc1NC(=O)C1CC(c2ccccc2O)=NO1 (configuration not stated),"activity change, negative = inhibition",[1],inconclusive: -6.74%
COCCNc1nc(C)nc2c1nc(-c1ccccc1)n2CCN(C)C,Potency,[1],"inconclusive: 12.6 µM [rising, single point]"
CC(=O)c1cc2c(cc1NC(=O)CN1CCCCC1C)OCO2 (configuration not stated),"activity change, negative = inhibition",[1],inactive
CCn1c(=O)cc(SCC(=O)NCc2ccco2)c2ccccc21,Potency,[1],"inconclusive: 10 µM [rising, partial curve]"
CCCCCCCC/C=C\CCCCCCCC(=O)NCCO,"activity change, negative = inhibition",[1],inconclusive: -12.2%
same,"activity change, negative = inhibition",at 38.2 µM (top of the series),inactive: 10.4%
CC(=O)NCCNc1nc(-c2ccc(N(C)C)cc2)nc2ccccc12,Potency,[1],"inconclusive: 10 µM [rising, partial curve]"
Cc1ccc(C2NC(=O)c3c(sc4c3CCN(C)C4)N2)o1 (configuration not stated),Potency,[1],"inconclusive: 15.8 µM [rising, partial curve]"
Cn1c(=O)oc2cc(S(=O)(=O)NCCC(=O)Nc3ccc4c(c3)OCCO4)ccc21,"activity change, negative = inhibition",[1],inconclusive: -9.77%
O=C(O)c1cccn2c(=O)c3ccccc3nc12,Potency,[1],"inconclusive: 3.16 µM [rising, full curve, poor fit]"
CC(=O)c1ccc2c(c1)Nc1ccccc1S2,"activity change, negative = inhibition",[1],inconclusive: -27.4%
CCOC(=O)CSc1nnc(CNC(=O)c2cccs2)n1Cc1ccccc1,"activity change, negative = inhibition",[1],inconclusive: -2.17%
CCCn1c(=O)c(C(=O)Nc2ccccc2C(=O)OCC)c(O)c2ccccc21,"activity change, negative = inhibition",[1],inconclusive: 4.7%
COc1ccc(CCNC(=O)CSc2nc(N)c3c(C)c(C)oc3n2)cc1OC,Potency,[1],"inconclusive: 12.6 µM [rising, single point]"
C[C@@H](O)[C@H]1C(=O)N2C(C(=O)O)=C(S[C@@H]3CN[C@H](C(=O)N(C)C)C3)[C@H](C)[C@H]12,"activity change, negative = inhibition",[1],inactive
CN(C)c1ccc(-c2nc(N3CCNCC3)c3ccccc3n2)cc1,"activity change, negative = inhibition",[1],inconclusive: 12.9%
COc1ccc(OC)c(-c2cc(C(=O)Nc3c(C)nn(Cc4ccccc4)c3C)no2)c1,Potency,[1],active: 5.01 µM
O=C(CCNS(=O)(=O)c1ccc2c(c1)CCC(=O)N2)NCc1cccnc1,"activity change, negative = inhibition",[1],inconclusive: 5.28%
